Source: article PMC4336329 (PLoS ONE, 2015)
In all, about 310,000 compounds went through this assay and about 14,000 (4.5%) showed an effect of 50% or more. The effect is printed as a negative number. The list shows a part of the results.

Target: human ether-à-go-go-related gene (hERG) potassium channel (human, UniProt Q12809)
Test: primary screen, population patch clamp on CHO cells stably expressing hERG
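Also: peak tail current of the secondary pulse compared with the same well before compound.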

Chain of human ether-à-go-go-related gene (hERG) potassium channel (Q12809 whole entry, looked up): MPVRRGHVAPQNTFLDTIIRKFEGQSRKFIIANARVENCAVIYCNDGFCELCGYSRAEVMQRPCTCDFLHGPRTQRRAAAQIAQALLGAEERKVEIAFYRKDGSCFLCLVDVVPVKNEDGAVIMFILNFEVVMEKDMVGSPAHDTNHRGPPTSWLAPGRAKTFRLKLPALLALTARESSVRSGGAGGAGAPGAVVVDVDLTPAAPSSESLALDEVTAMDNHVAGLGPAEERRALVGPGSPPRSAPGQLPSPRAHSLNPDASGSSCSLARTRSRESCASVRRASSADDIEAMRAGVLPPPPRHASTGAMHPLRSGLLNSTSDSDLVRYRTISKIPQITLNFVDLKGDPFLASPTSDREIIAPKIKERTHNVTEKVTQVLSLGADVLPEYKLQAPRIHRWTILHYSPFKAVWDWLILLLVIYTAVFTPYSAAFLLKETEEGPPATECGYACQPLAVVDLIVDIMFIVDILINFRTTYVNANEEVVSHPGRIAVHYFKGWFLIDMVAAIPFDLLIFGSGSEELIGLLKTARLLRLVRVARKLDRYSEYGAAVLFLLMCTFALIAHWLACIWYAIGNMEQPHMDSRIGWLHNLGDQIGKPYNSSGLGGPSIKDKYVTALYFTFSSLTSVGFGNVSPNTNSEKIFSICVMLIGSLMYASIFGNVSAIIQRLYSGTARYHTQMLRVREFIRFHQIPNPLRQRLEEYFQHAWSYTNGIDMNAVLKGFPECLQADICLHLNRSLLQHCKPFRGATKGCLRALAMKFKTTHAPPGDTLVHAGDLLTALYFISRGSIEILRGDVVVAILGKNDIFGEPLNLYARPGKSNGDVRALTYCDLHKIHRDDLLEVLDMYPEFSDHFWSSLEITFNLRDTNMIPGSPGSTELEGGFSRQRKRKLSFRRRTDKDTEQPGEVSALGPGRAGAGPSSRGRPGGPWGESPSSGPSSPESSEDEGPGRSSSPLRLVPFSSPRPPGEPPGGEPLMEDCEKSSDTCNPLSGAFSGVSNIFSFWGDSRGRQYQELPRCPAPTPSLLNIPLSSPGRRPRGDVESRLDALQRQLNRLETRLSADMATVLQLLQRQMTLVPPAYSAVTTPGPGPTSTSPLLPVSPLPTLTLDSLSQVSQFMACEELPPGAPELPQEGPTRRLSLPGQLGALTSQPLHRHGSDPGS

SMILES | hERG current change (%, negative = inhibition) at 10uM
Cc1c(C(=O)NCc2ccc3c(c2)OCO3)oc2ccc(S(=O)(=O)N3CCCCC3)cc12 | -2.63%
CCN(Cc1ccccc1)C(=O)CC1Oc2ccccc2NC1=O (stereo not shown) | -9.35%
S=C(Nc1ccccc1Cl)N(CCCN1CCOCC1)Cc1ccccn1 | -14.2%
C=CCn1c(O)c(/C=N/N2CCCCC2c2cccnc2)c(=O)[nH]c1=S (stereo not shown) | -35%
COc1ccc(/C=N/NC(=O)CCc2c(C)n[nH]c2C)cc1O | -0.362%
Cc1ccc(-c2nnc(NC(=O)C3=COCCO3)o2)c(C)c1 | -7.08%
CNC(=S)NNC(=O)Cc1ccc(OC)cc1 | 13.8%
Cc1ccc(S(=O)(=O)NC2c3cccc4cccc(c34)C2Sc2nncn2C)cc1 (stereo not shown) | 16.4%
COc1ccc(OC)c(NC(=O)C2CCN(C(=O)C3CC(=O)N(c4ccc(C)cc4)C3)CC2)c1 (stereo not shown) | -37.7%
O=C(CSc1ncnc2c1sc1ccccc12)Nc1ccc(Br)cc1 | 6.27%
O=C(C1=COCCO1)N1CCN(S(=O)(=O)c2cccc(F)c2)CC1 | 11.7%
O=C(C1CCN(S(=O)(=O)c2ccccc2)CC1)N1CCC1 | 12.3%
C=CCNC(=O)c1csc(-c2ccccc2)n1 | -24.3%
O=c1[nH]c2ccc(Cl)cc2c(-c2ccccc2)c1SC(=S)N1CCCCC1 | 11.4%
COC(=O)C(C#N)c1nc2ccccc2nc1N1CCCC1 (stereo not shown) | -0.357%
COC(=O)CNC(=O)CNC(=O)c1nn(-c2ccc(OC)c(OC)c2)c(=O)c2ccccc12 | 18.1%
COc1ccc(-n2nc(C(=O)NCC(=O)NC3CCCCC3)c3ccccc3c2=O)cc1 | 11%
Cc1nc2ccc(NS(=O)(=O)c3ccccc3F)cc2s1 | 0.277%
CC(C)CCNC(=O)c1onc(CSc2ccc(F)cc2)c1C(=O)NCCC(C)C | 5.82%
CN(C)S(=O)(=O)n1cc(/C=C(\NC(=O)c2ccccc2F)C(=O)N2CCOCC2)c2ccccc21 | 18.5%
COc1ccc(CCN2C(=O)NC(NC(=O)CC(C)C)(C(F)(F)F)C2=O)cc1OC (stereo not shown) | 18.9%
CC(=O)CCC1CC(c2ccc(Cl)cc2)=NO1 (stereo not shown) | -7.96%

SMILES | hERG current change (%, negative = inhibition) at 10uM
CC1=C(C(=O)Nc2ccccc2)C(c2ccccn2)n2ncnc2N1 (stereo not shown) | 6.45%
Oc1ccccc1N=N/C(=N/Nc1ccccc1O)c1ccccc1 | 8.83%
COc1ccc(OC)c(CNCCc2ccc(OC)c(OC)c2)c1.O=C(O)C(=O)O | 5.38%
O=C(COC(=O)CNC(=O)c1cccc([N+](=O)[O-])c1)Nc1nc2ccccc2s1 | -4.12%
Cc1ccccc1-n1cc(CNC(=O)CCc2nnc(CCc3ccccc3)o2)cn1 | -12.2%
Cc1ccc(S(=O)(=O)NC(Cc2c[nH]c3ccccc23)C(=O)O)cc1 (stereo not shown) | -0.633%
Cc1ccc(Nc2nc(C(=O)N3CCC(C(=O)NC(C)C)CC3)cs2)cc1 | 2.44%
Nc1cc(=O)[nH]c(SCC(=O)NNC(=O)c2ccccc2)n1 | 22.3%
Cc1c(Cl)cccc1NC(=S)N1CCc2ccccc2C1 | 10.4%
O=C(CSc1nnc(CCCO)n1-c1ccccc1)Nc1nccs1 | 0.786%
COc1ccc(C2SCC(=O)N2CC23CC4CC(CC(C4)C2)C3)cc1 (stereo not shown) | 3.15%
Cc1ccc(CN2CCCN(Cc3c(F)cccc3Cl)S2(=O)=O)cc1 | 18.2%
CCc1ccc(C(=O)Nc2nnn(CC)n2)cc1 | -4.13%
Cc1cc(C)cc(C(=O)N2CCC(C(N)=O)CC2)c1 | 2.24%
Cc1cccc(NC(=O)N2CCN(Cc3ccc4c(c3)OCO4)CC2)c1C | 12.4%
COC(=O)c1cc(-c2ccc(OC)c(OC)c2)n[nH]1 | 14.4%
Cc1c(Cl)ccc(S(=O)(=O)NCCN2CCOCC2)c1Cl | -12%
COc1ccc(CC(=O)OCC(=O)Nc2cccc(Br)c2)cc1 | -6.54%
CCN1CCN(C2CCCCC2NS(=O)(=O)c2ccccc2)CC1 (stereo not shown) | 11.7%
CC(C)[C@H](NC(=O)Cc1ccccc1)C(=O)OCc1cc(=O)n2c(n1)sc1ccccc12 | 4.62%
COc1ccccc1NS(=O)(=O)c1ccc(C(=O)Nc2ncccc2O)cc1 | 0.815%
O=C(NCc1cccnc1)c1cc(-c2cccs2)on1 | -29.9%

SMILES | hERG current change (%, negative = inhibition) at 10uM
O=C(Nc1nccs1)c1ccc(-c2cccc([N+](=O)[O-])c2)o1 | 13.8%
Cn1c(-c2ccc(F)cc2)cnc1NCc1cccc(F)c1 | -46%
Cc1ccc(-c2nc(N/N=C/c3cccnc3)c3ccccc3n2)cc1 | -3.51%
CC(C(=O)Nc1ccccc1Br)N1c2cccc3cccc(c23)S1(=O)=O (stereo not shown) | 10.4%
CC(Oc1cccc(Cl)c1)C(=O)NCc1ccc(S(N)(=O)=O)cc1 (stereo not shown) | 10.5%
Cc1nc2ccccn2c1C(=O)Nc1ccc2c(c1)OCCO2 | 0.029%
O=C1c2ccccc2C(=O)C1c1ccc(Br)cc1 | 23%
COc1cc(C(CCN2CCN(c3ccccc3)CC2)c2c(OC)cc(OC)c3c(C)cc(=O)oc23)cc(OC)c1OC (stereo not shown) | -6.01%
CN1CCN(C(=O)c2ccccc2NC(=O)CCN2C(=O)c3ccccc3C2=O)CC1 | -3.71%
Cc1ccccc1NC(=S)NNC(=O)c1cccc(Br)c1 | 10.6%
COc1ccccc1Nc1ccc(Nc2ccccc2OC)nn1 | -1.58%
O=C(CCN1C(=O)NC2(CCCC2)C1=O)Nc1ccc(-c2nc3ccccc3s2)cc1 | -10.6%
Cl.OCCNc1nc(N2CCCCC2)nc2ccccc12 | -58.2%
CCc1ccc(NS(=O)(=O)c2ccc(C)c(C(=O)N3CCOCC3)c2)cc1 | 15.7%
CCCn1nnc(NC(=S)NC(=O)Cc2ccccc2)n1 | -3.57%
O=C(CN(Cc1ccco1)S(=O)(=O)c1cccs1)Nc1ccccc1C(F)(F)F | -32.8%
O=C(O)CSCC(=O)N1CCc2c([nH]c3ccccc23)C1C(F)(F)F (stereo not shown) | 20%
O=C(C1CCC(CNc2c(N3CCCCC3)c(=O)c2=O)CC1)N1CCCC1 (stereo not shown) | -16.4%
CCCOc1ccc(-c2nc(OC)c3ccccc3n2)cc1 | -2.04%
O=[N+]([O-])c1cnn(-c2nc(-c3ccccc3)cc(C(F)(F)F)n2)c1 | 8.82%
C/C(=N\S(=O)(=O)c1ccc(C)cc1)NC(=S)Nc1ccccc1 | 20.4%
COc1cccc(=O)c2c(C)n(CC(=O)c3ccccc3)c(C)c12 | 7.84%

SMILES | hERG current change (%, negative = inhibition) at 10uM
O=C1NCCCC1C(=O)NCCN1C(=O)CCC1=O (stereo not shown) | -0.791%
CCOC(=O)c1c(NC(=O)/C=C/c2ccc(C)o2)sc(C)c1C | 2.09%
COc1ccc(-c2cn(-c3ccc(SC(F)F)cc3)c3[n+]2CCC3)cc1OC.[Br-] | -62.4%
O=C(CCNC(=O)c1ccc(Cl)cc1)Nc1ncccc1O | 9.95%
O=C(CCc1ccccc1)NNC(=O)C1CCCCC1 | -2.12%
O=C(CN1CCN(c2cccc(Cl)c2)CC1)NC1CCCc2ccccc21 (stereo not shown) | 3.17%
CC(=O)Nc1ccc(-c2csc(NC(=O)CC(NC(C)=O)c3ccccc3)n2)cc1 (stereo not shown) | 22.9%
CCOC(=O)CN1C(=O)C(O)(CC(=O)c2ccc3c(c2)CCCC3)c2ccccc21 (stereo not shown) | -6.23%
Cc1ccccc1Oc1ccc(Oc2ccccc2C)nn1 | 14.7%
CCCCSc1ncnc2[nH]ncc12 | -3.6%
CC1CC(C)(C)CC2(C1)NC(=O)N(CC(=O)NCCc1ccc3c(c1)OCCO3)C2=O (stereo not shown) | 2.63%
Cc1nn(CC(=O)N2CCC3(CC2)OCCO3)c(=O)c2cc3ccccc3n12 | 9.83%
COc1cc2c3nnc(-c4ccc(F)cc4)c-3cn(Cc3ccc(C)cc3)c2cc1OC | 2.79%
CC(CNC(=O)CCS(=O)(=O)c1ccc2c(c1)NC(=O)CO2)c1ccccc1 (stereo not shown) | -6.68%
CC(C)(c1ccccc1)c1ccc(OCC(O)CN2CCCC2)cc1.Cl (stereo not shown) | -60.3%
NC(=O)C1CCN(C(=O)CCCCCn2c(=O)[nH]c3ccsc3c2=O)CC1 | 0.397%
Cc1ccc(CNC(=O)C2CCC(=O)N(Cc3cccc(C(F)(F)F)c3)C2)o1 (stereo not shown) | -42.6%
COc1ccc(N2C(=O)CC(N3CCN(c4nc5ccccc5s4)CC3)C2=O)cc1 (stereo not shown) | -30.9%
Cc1ccc(C(=O)Cn2c(=N)n(CCN3CCOCC3)c3ccccc32)cc1.[Br-] | -59.9%
CC(C)Sc1nc2c(c(=O)n1-c1ccc(F)cc1)SCC2 | 16%
CCOc1cc(C(=O)Nn2cnnc2)cc(OCC)c1OCC | 13.8%
CCS(=O)(=O)N1Cc2ccccc2CC1C(=O)Nc1ccc(OC)cc1OC (stereo not shown) | -6.9%
